Laboratory results: publication PMC4336329 (PLoS ONE, 2015)
Hit rate of the full screen: of about 310,000 compounds, about 14,000 (4.5%) showed an effect of 50% or more. Effects have a minus sign here. The list shows a part of the results.

Biological target: human ether-à-go-go-related gene (hERG) potassium channel (human, UniProt Q12809)
Assay: primary screen, population patch clamp on CHO cells stably expressing hERG
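Also: peak tail current of the secondary pulse compared with the same well before compound.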

human ether-à-go-go-related gene (hERG) potassium channel, sequence (Q12809 whole entry, looked up): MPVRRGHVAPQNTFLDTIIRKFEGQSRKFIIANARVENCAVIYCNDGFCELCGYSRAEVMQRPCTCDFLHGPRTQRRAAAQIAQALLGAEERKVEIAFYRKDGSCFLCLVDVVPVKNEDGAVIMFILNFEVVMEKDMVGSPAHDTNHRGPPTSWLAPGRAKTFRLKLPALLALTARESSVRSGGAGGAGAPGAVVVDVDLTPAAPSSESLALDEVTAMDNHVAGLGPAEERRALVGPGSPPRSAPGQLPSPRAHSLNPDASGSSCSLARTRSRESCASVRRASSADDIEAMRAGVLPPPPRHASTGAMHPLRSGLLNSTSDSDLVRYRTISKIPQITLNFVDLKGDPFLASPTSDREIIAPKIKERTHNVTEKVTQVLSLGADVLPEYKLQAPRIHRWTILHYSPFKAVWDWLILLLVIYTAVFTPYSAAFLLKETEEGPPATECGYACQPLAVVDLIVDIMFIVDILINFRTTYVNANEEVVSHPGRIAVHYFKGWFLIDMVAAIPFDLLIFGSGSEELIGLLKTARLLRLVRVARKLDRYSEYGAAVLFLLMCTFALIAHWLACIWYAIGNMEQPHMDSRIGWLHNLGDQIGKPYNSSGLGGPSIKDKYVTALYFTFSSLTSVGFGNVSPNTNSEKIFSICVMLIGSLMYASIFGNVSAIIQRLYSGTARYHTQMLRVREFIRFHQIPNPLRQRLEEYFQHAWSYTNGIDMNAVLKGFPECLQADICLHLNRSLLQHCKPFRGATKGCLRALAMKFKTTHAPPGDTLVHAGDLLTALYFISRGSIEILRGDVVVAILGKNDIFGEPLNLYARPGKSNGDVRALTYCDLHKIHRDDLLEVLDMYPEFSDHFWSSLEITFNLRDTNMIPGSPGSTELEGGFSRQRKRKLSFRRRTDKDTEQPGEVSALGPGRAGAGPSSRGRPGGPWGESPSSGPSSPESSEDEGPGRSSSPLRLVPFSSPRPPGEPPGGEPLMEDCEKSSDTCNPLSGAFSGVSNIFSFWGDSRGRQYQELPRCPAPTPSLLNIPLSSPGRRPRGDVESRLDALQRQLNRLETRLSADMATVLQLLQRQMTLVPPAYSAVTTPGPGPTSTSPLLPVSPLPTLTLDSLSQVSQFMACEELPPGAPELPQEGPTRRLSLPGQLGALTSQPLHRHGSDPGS

| SMILES | hERG current change (%, negative = inhibition) at 10uM |
| --- | --- |
| C=C1CCN(C(C(=O)OC)C(C)C)S(=O)(=O)c2ccc(F)cc21 (centres unmarked) | -0.85% |
| Cc1ccnc(SCc2cc(=O)c(OC(=O)c3cccs3)co2)n1 | -12.7% |
| CC1CCN(S(=O)(=O)c2cccc(C(=O)NNC(=O)c3ccco3)c2)CC1 | -1.07% |
| CCc1ccccc1NC(=S)N(Cc1ccc(OC)cc1)CC1CCC(C(=O)O)CC1 (centres unmarked) | 15% |
| COc1ccc(/C=N/NC(=O)c2nc(-c3ccccc3)n(-c3ccccc3)n2)cc1 | 14.7% |
| O=C(NCc1cccc(C(F)(F)F)c1)C1CC(c2cccc(F)c2)=NO1 (centres unmarked) | -10.5% |
| CCOc1ccc(CN2CCN(C(=O)Cc3ccccc3)CC2)cc1.O=C(O)C(=O)O | -44.1% |
| CCCCN(C(=O)c1cccc(S(=O)(=O)N(C)c2ccc(C)cc2)c1)c1c(N)n(CCCC)c(=O)[nH]c1=O | -2.97% |
| CN1CCN(CP(=O)(N2CCOCC2)N2CCOCC2)CC1 | 1.13% |
| CCN(CC)S(=O)(=O)c1nnc(NC(=O)c2ccco2)s1 | 15.5% |
| COc1cc([N+](=O)[O-])ccc1N/C=C/C(=O)c1cccs1 | 4.7% |
| COC(=O)C1CCN(Cc2ccc(C)cc2)CC1 | -22.2% |
| Cn1nnnc1SCC(=O)NC1CCCC1 | 12.6% |
| CCCc1nc2ccccc2c(=O)n1-c1ccc(O)cc1 | 13.4% |
| Cn1nc(C(F)(F)F)c(/C=N/OC(=O)c2ccccc2Cl)c1SCc1ccc(Cl)cc1 | -3.5% |
| CCN(CC)CCNC(=O)c1c(O)c2ccccc2n(Cc2ccccc2)c1=O.Cl | -63% |
| O=C1C2C3C=CC(C3)C2C(=O)N1CCN1CCN(S(=O)(=O)/C=C/c2ccccc2)CC1 (centres unmarked) | -27.9% |
| CN(Cc1n[nH]c(=S)n1C)S(=O)(=O)c1ccccc1 | 14.5% |
| COc1ccc(O)c(/C=N/NC(=O)CCC(=O)Nc2ccc(C)cc2)c1 | 12.3% |
| CC(=O)Nc1nc(SCC(=O)NCc2ccc(F)cc2)[nH]c(=O)c1NC(=O)c1cccs1 | 13.7% |
| Cc1ccccc1-c1nnc(-c2ccc(Cl)cc2)o1 | 7.36% |
| Cc1ccc(-c2nn(-c3ccccc3)cc2CSC(=N)N)cc1.Cl | -10.2% |
| COc1ccc(NS(=O)(=O)c2cccc3nsnc23)cc1OC | 2.86% |

| SMILES | hERG current change (%, negative = inhibition) at 10uM |
| --- | --- |
| CN(CC(=O)OCC(=O)NCc1ccccc1)S(=O)(=O)c1ccc(F)cc1 | -13.7% |
| CN1CCN(C2=C(Cl)C(=O)N(CCc3ccccc3)C2=O)CC1 | 0.967% |
| CC(C)CCOc1ccc(/C=N/N2C(=O)CSC2=S)cc1 | -3.94% |
| CC(=O)c1ccc(OCC(O)CN2CCc3ccccc3C2)cc1.Cl (centres unmarked) | -41.9% |
| CCCCN(C(=O)c1cccs1)C1CCS(=O)(=O)C1 (centres unmarked) | -12.6% |
| CCOC(=O)c1c(C)n(CCNC(C)=O)c2ccc(O)cc12 | 17.7% |
| CC(=O)c1cc2c(cc1NC(=O)CSc1nc3ccccc3o1)OCO2 | 3.8% |
| COc1cc2c(cc1OC)CN(C(=O)CCN1C(=O)C3CCCCC3C1=O)CC2 (centres unmarked) | 36.4% |
| CC(=O)N(Cc1ccc2c(c1)OCO2)C1CC(=O)N(CCc2ccccc2)C1=O (centres unmarked) | -10.9% |
| CCOC(=O)C1CCN(C(=O)Cn2cccc2C(=O)c2ccccc2)CC1 | 2.64% |
| C1CN(CC2CCN(c3nc4nonc4nc3N3CCSCC3)CC2)CCO1 | -3.83% |
| CCOc1ccccc1NC(=O)COC(=O)C1CC1 | 3.42% |
| CCc1ccc2nc(N3C(=O)c4oc5ccccc5c(=O)c4C3c3ccc(OC)c(OC)c3)sc2c1 (centres unmarked) | 18% |
| Cc1ccc(NC(=O)C(NS(=O)(=O)c2cccc3nsnc23)C(C)C)nc1 (centres unmarked) | 0.927% |
| CC(C(=O)OCC(=O)c1cccc([N+](=O)[O-])c1)N1C(=O)C2C3CCC(C3)C2C1=O (centres unmarked) | 2.55% |
| CCOC(=O)c1c(C)oc2c1C(=O)c1ccccc1C2=O | -0.394% |
| N#Cc1ccccc1NC(=O)Nc1ccccc1 | 17.4% |
| COc1ccc(-c2nnc(SCc3nc4ccccc4c(=O)[nH]3)o2)cc1 | -17.8% |
| Nc1nc(Nc2ccccc2)nc(N2CCOCC2)c1[N+](=O)[O-] | -21% |
| COc1ccc(NC(=O)CN(C2CCCCC2)S(C)(=O)=O)cc1Cl | -18.4% |
| CCOC(=O)C1(Cc2ccccc2C)CCCN(C(=O)CCn2nccc2C)C1 (centres unmarked) | -16.5% |
| O=S(=O)(Nc1cc(Cl)ccc1-n1cncn1)c1ccccc1Cl | -14.1% |
| CC(=O)Nc1ccc(S(=O)(=O)N[C@@H](C)C(=O)OCC(=O)NC2CCCC2)cc1 | -12% |

| SMILES | hERG current change (%, negative = inhibition) at 10uM |
| --- | --- |
| CC(=O)CC(c1ccccc1[N+](=O)[O-])c1c(O)c2ccccc2oc1=O (centres unmarked) | 6.62% |
| CCc1nnc(NC(=O)CN2CCN(C(=O)c3ccccc3)CC2)s1 | 14.7% |
| O=Cc1ccc(-c2ccccc2OC(F)(F)F)o1 | 1.6% |
| O=c1[nH]c(C2CCCN(S(=O)(=O)c3ccccc3F)C2)nc2c1nnn2Cc1ccccc1Cl (centres unmarked) | 13.8% |
| CN(Cc1ccc(Cl)cc1)C(=O)c1ccc(S(=O)(=O)NCc2ccco2)cc1 | -51.8% |
| CC1(C)C(C=C(Cl)Cl)C1C(=O)Nc1ccc(S(=O)(=O)Nc2ncccn2)cc1 (centres unmarked) | 16.1% |
| O=C1c2ccccc2C(=O)N1CCCCSc1nnc2c(Cl)cc(Cl)cn12 | -80.2% |
| O=C1CN(C(=O)COC(=O)/C=C/c2ccco2)c2ccccc2N1 | 6.56% |
| Oc1ccc(/C=N/Nc2ccnc3cc(Cl)ccc23)c(O)c1 | 13.7% |
| O=C(Nc1nnc(SCC(=O)N2CCOCC2)s1)c1ccccc1 | 0.207% |
| C#CCn1c(=O)cc(C)c2ccccc21 | 8.17% |
| CC(C)(C)NC(=O)COc1ccc2oc3c(c2c1)CCCC3 | -3.4% |
| CC(=O)c1cnc2nc(SCc3ccccc3C)nn2c1C | 8.79% |
| CCNC(=S)N1CCN(c2cccc(C(F)(F)F)c2)CC1 | -13.5% |
| CC(Oc1ccc2c(c1)oc(=O)c1ccccc12)C(=O)NCC1CCC(C(=O)O)CC1 (centres unmarked) | 17.7% |
| CNS(=O)(=O)c1ccc2ccccc2c1 | 6.76% |
| COc1ccc(S(=O)(=O)N2CCC(C(=O)NCCC3=CCCCC3)CC2)cc1OC | -23.5% |
| CC(C)(C)NC(=O)C(=O)NN=C1CCCCCC1 | -3.89% |
| CCOc1ccc(N=C2NC(=O)SC2CC(=O)OC)cc1 (centres unmarked) | -1.2% |
| COC(=O)CSc1snnc1-c1ccc(F)cc1 | 1.52% |
| O.O=C([O-])c1ccn2c(C(=O)c3ccccc3)c(-c3ccccc3)cc2c1 | 12.8% |
| O=C(N1CCCCCC1)N1CCN(S(=O)(=O)c2cccc([N+](=O)[O-])c2)CC1 | -33.1% |
| CN1CCc2c(sc(NC(=O)c3ccc(S(=O)(=O)N4CCCCCC4)cc3)c2C(N)=O)C1 | 5.51% |

| SMILES | hERG current change (%, negative = inhibition) at 10uM |
| --- | --- |
| COC(=O)c1ccc(Cn2cnc3c(cnn3-c3ccc(Cl)cc3)c2=O)o1 | 17.7% |
| Cc1nc2nc(N)nn2c(C)c1C/C=C/c1ccccc1 | -3.29% |
| O=C(CCNS(=O)(=O)c1ccc(Br)s1)NCc1ccc2c(c1)OCO2 | -36.6% |
| COC(=O)C1=C(C)N(CC2CC2)C(=NCc2cc(OC)c(OC)c(OC)c2)N[C@H]1c1ccccc1 | -17.5% |
| CN(C1=C(NC(=O)c2ccc(Cl)cc2)C(=O)c2ccccc2C1=O)c1ccccc1 | -5.62% |
| N#CCSc1nc2[nH]ncc2c(=O)n1-c1ccccc1Br | -1.9% |
| CN(C)CCCn1c2c(c(SCC(=O)Nc3ccc4c(c3)OCO4)nc1=O)CCCC2 | -39.7% |
| O=C(Oc1ccccc1N1CCOCC1)c1ccccc1 | 12.3% |
| COc1ccccc1CNC(=O)c1n[nH]c2ccccc12 | 8.97% |
| COc1cccc(CNC(=O)CN2C(=O)CSc3ccc(S(=O)(=O)N4CCOCC4)cc32)c1 | -14.6% |
| CO/N=C\c1cc(C(=O)c2ccc(Cl)cc2Cl)cn1C | -11.9% |
| CCc1ccc(OCC(=O)N2CCN(c3ccccn3)CC2)c(Br)c1 | -40.8% |
| O=C(CN1C(=O)CCSc2ccccc21)Nc1ccc2c(c1)OCO2 | -13.6% |
| Cc1cc(Nc2ccccc2)nn1C(=O)c1ccc(Cl)cc1 | 17.8% |
| CCOC(=O)C1CCC(CNCc2ccc(Cl)cc2)CC1 (centres unmarked) | -69.2% |
| CS(=O)(=O)c1ncc(Cl)c(C(=O)Nc2ccc(N3CCOCC3)cc2)n1 | 4.23% |
| CCN(CC)CC(=O)Nc1sc(C)c(C)c1C(=O)c1ccc(C)cc1 | -0.341% |
| CCOc1ccc(N2CC(O)(c3cccs3)[N+]3=C2CCCC3)cc1.[Br-] (centres unmarked) | -69.7% |
| CCCOc1ccc(C(=O)NCCC(=O)NCCCC(=O)O)cc1 | 11.8% |
| CCC1=C(OC(=O)N(CC)CC)N2C(=O)OC(=NCc3ccccc3)[C@]2(C)[C@H]2C1=CC[C@H]1C(=O)N(CC)C(=O)[C@H]12 | -2.64% |
